In the assay the test system is Plasmodium falciparum. As to the kind of experiment: Primary screen in NF54 nanoGlo assay, in single point, at 2uM, 72h; a lower Z score goes with more inhibition. Format: functional, Erythrocyte. To be noted: timepoint 72 hour.

Structures are written as SMILES. About 540 (0.36%) of roughly 150,000 compounds showed an effect of 50% or more. The list shows a part of the results.

As usually defined, the % Inhibition is the relative decrease from the control value, in per cent. Regarding `O=C(NCC1(C(F)(F)F)CC1)[C@H]1CCc2[nH]ncc2C1`, the “% Inhibition” value is -9% and the Z score is 1.04.

`O=C(Nc1ccn2ccnc2c1)N1Cc2ncccc2N2CCC[C@H]2C1`: the “% Inhibition” value is -3% and the Z score worked out at 0.3.

`O=C(c1nn[nH]c1Nc1ccccc1F)N1CCN(C2CCCCC2)CC1`: the “% Inhibition” value was -8% and the Z score is listed as 0.97.

For the molecule `O=C(c1cc(Br)ccc1O)N1CCC(C(=O)N2CCCC2)CC1`, the “% Inhibition” value was -10% and the Z score stood at 1.15.

As for `CCN(Cc1cn(C)nn1)C(=O)c1scnc1C(C)C`, the “% Inhibition” value amounted to 6% and the Z score is recorded as -0.84.

On to `CN(CC(F)F)C(=O)c1cnc(OCC2CC2)c(Cl)c1`, for which the “% Inhibition” value was -6% and the Z score was 0.86.

For the molecule `COc1cccc(Cc2nc(CC(=O)NC3CCCCC3)no2)n1`, the “% Inhibition” value is -9% and the Z score came to 1.8.

As for `CN(c1nc2c(c(N3CCOCC3)n1)CN(S(=O)(=O)c1cccc(Cl)c1)CC2)C1CCCCC1`, the “% Inhibition” value is on record as -1% and the Z score is 0.18.

`Cc1nc(C)c(-c2cccc(C(=O)N(C)Cc3ccccc3CN(C)C)c2)[nH]1`: the “% Inhibition” value is given as -8% and the Z score worked out at 0.76.

On to `Cc1ccc([C@@]2(O)C[n+]3ccccc3N2Cc2ccccc2)cc1`, for which, for the setting “2 µM”, the “% Inhibition” value is recorded as -3% and the Z score came out at 4.05.

Regarding `CC1CN(C(=O)c2ccc3c(c2)C(C)(C)CO3)C1`, the “% Inhibition” value is 9% and the Z score is recorded as -1.09.

Regarding `CC1(CO)CN(C(=O)Nc2cccnc2-c2ccco2)C1`, the “% Inhibition” value is reported as -5% and the Z score worked out at 0.68.

As for `N#CCCN(Cc1csc(-c2ccoc2)n1)C1CCOCC1`, the “% Inhibition” value was -13% and the Z score worked out at 1.75.

With `COc1cncc(CN(CC(C)C)C2CC2)c1`, the “% Inhibition” value amounted to 1% and the Z score is reported as -0.1.

As for `CC(C)[C@@]1(CO)CCCN(Cc2cncc(F)c2)C1`, the “% Inhibition” value was -14% and the Z score was 2.83.

Turning to `C[C@H](Oc1ccc(-c2ccccc2)cc1)C(=O)NC1CCS(=O)(=O)CC1`, the “% Inhibition” value is -2% and the Z score was found to be 0.2.

`CCn1ncc2c1NC(=O)C[C@@H]2Cc1ccccc1`: the “% Inhibition” value was -11% and the Z score is 1.36.

For the molecule `CN1OCC(S(=O)(=O)NCc2cccc(C(F)(F)F)c2)C1c1cccc(OCc2ccccc2)c1` (centres undefined), the “% Inhibition” value was -3% and the Z score amounted to 0.41.

As for `CCC(=O)N1CCN(C(=O)[C@@H]2CCCO2)CC1`, the “% Inhibition” value is given as -12% and the Z score stood at 1.15.

In the case of `Cc1ccc(S(=O)(=O)N2CCN(Cc3ccccc3)CCN(S(=O)(=O)c3ccc(C)cc3)CCN(S(=O)(=O)c3ccc(C)cc3)CC2)cc1`, the “% Inhibition” value is on record as -13% and the Z score is on record as 2.46.

As to `COc1nc2c(cc1CNC(=O)c1occc1C)C(=O)N(C1CCCC1)C2`, the “% Inhibition” value is -9% and the Z score is 0.84.

As to `CCc1ccc2nc(-c3ccc[nH]3)[nH]c(=O)c2c1`, the “% Inhibition” value is -4% and the Z score amounted to 0.59.

For `Cc1ccc(Cl)cc1CNC(=O)N1CC[C@H](S(C)(=O)=O)C1`, the “% Inhibition” value is given as -12% and the Z score is recorded as 2.08.

With `O=C(COc1ccc2ccccc2c1)N1CCC[C@H](O)C1`, the “% Inhibition” value was -9% and the Z score worked out at 1.64.

With `CCOc1ccc(C(=O)N2CCC[C@H](C(=O)Nc3nccs3)C2)cc1OCC`, the “% Inhibition” value is -10% and the Z score worked out at 0.87.

For `CC(C)c1cc(C(=O)N2CC[C@@](O)(C3CCOCC3)[C@H](C)C2)cs1`, the “% Inhibition” value is reported as -4% and the Z score was 0.7.

With `N#Cc1c(C2CC2)n[nH]c1NC(=O)C[C@H]1CCOC1`, the “% Inhibition” value amounted to 5% and the Z score was -0.67.

For `Cc1nonc1CNC(=O)NC[C@H]1C[C@@H]1c1ccccc1`, the “% Inhibition” value is reported as -2% and the Z score is 0.3.

In the case of `COc1ccc(-c2cc(N3CCC[C@H](NC(=O)c4cc(C)cc(C)c4)C3)[nH]n2)cc1`, the “% Inhibition” value was -26% and the Z score was 2.67.

Turning to `Cn1ncnc1CNC(=O)NC1CC1c1cccc(Cl)c1Cl` (centres undefined), the “% Inhibition” value was -8% and the Z score is given as 0.94.

On to `C[C@]1(Cc2ccc3c(c2)OCO3)CCCN(C(=O)Cn2ccc(=O)cc2)C1`, for which the “% Inhibition” value is -4% and the Z score is recorded as 0.34.

For the molecule `C=C(C)C(=O)Nc1ccc(Cl)c(Cl)c1`, the “% Inhibition” value is listed as 3% and the Z score is listed as -0.36.

As for `N#Cc1cnn(CC#Cc2ccc(F)cc2)c1`, the “% Inhibition” value is recorded as -8% and the Z score is recorded as 0.79.

As to `O=C(c1cccn2c(=O)c3ccc(Cl)cc3nc12)N1CCN(Cc2ccc3c(c2)OCO3)CC1`, the “% Inhibition” value came out at 15% and the Z score was -1.81.

As to `Cn1c2c(c(=O)n(C)c1=O)CC[C@@H](c1ccccc1)O2`, the “% Inhibition” value is -2% and the Z score was determined as 0.22.

Consider `Cc1nccc(N2CCC[C@@]3(CCC(=O)N(CCc4ccccn4)C3)C2)n1`, for which the “% Inhibition” value was -10% and the Z score is reported as 2.03.

On to `CO[C@@H](C)c1nc(CC(=O)N2CCCc3cc(C(C)(C)C)ccc32)cs1`, for which the “% Inhibition” value is listed as -8% and the Z score worked out at 0.86.

Turning to `CCOCC1(CNC(=O)c2cccnc2OC)CCC1`, the “% Inhibition” value stood at 1% and the Z score is listed as -0.27.

Regarding `CN(C)c1ncn(-c2cccc(NCc3csc4ccccc34)c2)n1`, the “% Inhibition” value turned out to be 1% and the Z score is reported as -0.08.

Take `O=S(=O)(NCc1ccncc1OC[C@H]1CCOC1)c1cnn(CC2CC2)c1`: the “% Inhibition” value is recorded as -9% and the Z score amounted to 1.21.

Turning to `CC(=O)N[C@H]1C[C@H]2CN(S(=O)(=O)c3cccc(F)c3)CC(=O)N2C1`, the “% Inhibition” value is recorded as -24% and the Z score is 2.14.

As for `O=C(CCCC(=O)n1cnc2ccccc21)n1cnc2ccccc21`, the “% Inhibition” value came out at 8% and the Z score is -0.96.

The values above are taken from ChEMBL document CHEMBL4888484, “Replenishing the malaria drug discovery pipeline: Screening and hit evaluation of the MMV Hit Generation Library 1 (HGL1) against asexual blood stage Plasmodium falciparum ,using a nano luciferase reporter read-out” (2022).
